Source: PubChem BioAssay AID1030 (National Center for Advancing Translational Sciences (NCATS), 2008)
Values joined by “and” are separate entries in the source; they are usually repeats but may differ in a detail not shown here. Equal entries are not always repeated. The campaign covered roughly 220,000 compounds. About 16,000 (7.3%) were called active. Inconclusive results, whose numbers are uncertain, are shown with a selection of clear calls. The call rests on the fitted dose curve; in most records, active means well fitted inhibition curve with a large enough effect (not every such curve was filed as active); inconclusive means small, poorly fitted or top-dose-only effect, or another doubt; inactive means no such curve, though single readings can be large or run the other way. Potencies beside an inconclusive call are fits to weak or partial responses and may not hold up.

target: Aldehyde dehydrogenase 1A1 (Homo sapiens) (UniProt P00352); experiment: qHTS Assay for Inhibitors of Aldehyde Dehydrogenase 1 (ALDH1A1); details: Purified ALDH1A1, NADH fluorescence, propionaldehyde substrate; series mostly up to 75.3 µM
Potency means the concentration at half of the fitted maximal effect; tags describe the fitted curve by direction and shape.

UniProt P00352, sequence (P00352 whole entry, looked up): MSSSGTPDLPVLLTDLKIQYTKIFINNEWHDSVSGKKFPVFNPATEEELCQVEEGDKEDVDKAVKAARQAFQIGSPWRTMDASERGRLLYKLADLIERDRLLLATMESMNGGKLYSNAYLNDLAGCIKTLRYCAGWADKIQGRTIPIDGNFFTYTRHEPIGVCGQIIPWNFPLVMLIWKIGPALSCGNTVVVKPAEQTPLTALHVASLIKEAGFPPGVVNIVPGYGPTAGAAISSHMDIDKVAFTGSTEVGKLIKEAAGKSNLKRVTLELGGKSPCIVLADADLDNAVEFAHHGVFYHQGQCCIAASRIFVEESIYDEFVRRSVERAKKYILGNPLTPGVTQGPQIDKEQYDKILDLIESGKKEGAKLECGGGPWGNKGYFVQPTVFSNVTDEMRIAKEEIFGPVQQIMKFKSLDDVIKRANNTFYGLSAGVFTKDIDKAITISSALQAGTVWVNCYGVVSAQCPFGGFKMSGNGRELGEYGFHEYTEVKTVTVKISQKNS

Row | SMILES | Potency
1 | Cc1ccc(S(=O)(=O)/C(C#N)=C/c2c(N3CCN(C)CC3)nc3c(C)cccn3c2=O)cc1 | inconclusive: 22.4 µM [inhibitor, partial curve]
2 | N#C/C(=C1\C(=O)Nc2c(Cl)cc(Cl)cc21)c1nnc2n1CCCCC2 | active: 3.55 µM
3 | O=C(CCN1C(=O)c2ccccc2C1=O)C1=NN[C@@H]2C(=O)N(c3ccc(F)cc3)C(=O)[C@H]12 | inconclusive: 8.91 µM [inhibitor, single point]
4 | Cc1cccc(NC(=O)CSC(N)=O)c1C | active: 7.08 µM
5 | COc1cccc(C2=NOC(C(=O)NC(C)(C)C)C2)c1 (configuration not stated) | inactive
6 | CCN(CC(=O)Nc1ccc(Cl)c(S(=O)(=O)N(C)C)c1)CC(=O)NC(C)C | inactive
7 | CCN(CCCNC(=O)CCc1nc(-c2ccc(OC)cc2)no1)c1cccc(C)c1 | inconclusive: 28.2 µM [inhibitor, single point]
8 | Cc1n[nH]c(C)c1S(=O)(=O)N(CC(=O)N1CCc2ccccc21)c1ccc(C(C)C)cc1 | inconclusive: 7.94 µM [inhibitor, full curve]
9 | CC(=O)c1cc(F)c(N2CCCCCC2)cc1C | inactive
10 | CS(=O)(=O)Nc1ccc(C(=O)Nc2ccc(S(=O)(=O)N3CCCC3)cc2)cc1 | active: 25.1 µM
11 | Cc1ccc(NC(=O)c2sc3nc4c(c(-c5ccco5)c3c2N)CCC4)cc1 | active: 4.47 µM
12 | CCOC(=O)c1nn(-c2ccccc2)c(C)c1C(C)=O | inactive
13 | CC(C)N1C(=O)S/C(=C/c2ccc(Sc3nc4ccccc4[nH]3)o2)C1=O | active: 7.08 µM
14 | O=[N+]([O-])c1ccc(S(=O)(=O)Cc2ccccc2)c([N+](=O)[O-])c1 | active: 1.26 µM
15 | COC(=O)c1cc(C#N)c(Oc2cccc(C)c2C)nc1C | inconclusive: 23.8 µM [inhibitor, single point]
16 | Cn1c(C(=O)NCc2ccco2)cc2c(=O)[nH]c3ccccc3c21 | inconclusive: 31.6 µM [inhibitor, partial curve]
17 | COc1cnn(-c2ccc(Br)cc2)c(=O)c1SCc1ccccc1 | inconclusive: 39.8 µM [inhibitor, single point]
18 | COc1ccccc1OCCCOc1ccc([N+](=O)[O-])cc1Cl | inactive
19 | O=C(Nc1ncnc2sc3c(c12)CCCCC3)c1ccco1 | inactive
20 | CN(C)c1ccc(C=C2C(=O)OC3(CCCC3)OC2=O)cc1 | active: 0.251 µM
21 | COC(=O)c1ccn(-c2nc(-c3ccco3)cc(C(F)(F)F)n2)n1 | inconclusive: 31.6 µM [inhibitor, partial curve]
22 | CCCNC(=O)c1cc(S(=O)(=O)N2CCc3ccccc32)ccc1F | inactive
23 | c1ccc2c(CSCCc3ccncc3)cccc2c1 | inconclusive: 15.8 µM [inhibitor, partial curve, poor fit]
24 | COc1ccc(/C=C/C=C2\NC(=S)NC2=O)cc1 | inconclusive: 39.8 µM [inhibitor, single point]

Row | SMILES | Potency
25 | NC1=NN=C(N2N=C(c3ccc(Br)cc3)CC2(O)C(F)(F)F)n2ncnc2C1 (configuration not stated) | inconclusive: 35.5 µM [inhibitor, single point]
26 | CCCN1C2=C(C(=O)CC(C)(C)C2)C(c2ccc(F)cc2)C2=C1c1ccccc1C2=O (configuration not stated) | inconclusive: 8.91 µM [inhibitor, single point]
27 | CN(C)c1ccc(/C=C(\C#N)C(=O)NCc2ccco2)cc1 | inconclusive: 14.1 µM [inhibitor, single point]
28 | Cc1ccc(NC(=S)NC(=O)c2c(-c3ccccc3Cl)noc2C)cc1 | active: 7.94 µM
29 | CC(=O)NC1C(=O)SC1(C)C (configuration not stated) | inconclusive: 35.5 µM [inhibitor, single point]
30 | COc1ccc(C)cc1-n1nnnc1SCc1cc(=O)n2cc(C)ccc2n1 | inconclusive: 4.47 µM [inhibitor, partial curve]
31 | C=CC[N+](C)(C)C/C(Cl)=C(\Cl)c1ccccc1 | inactive
32 | O=C(Nc1ccc(F)cc1F)c1ccc(-n2cccn2)c([N+](=O)[O-])c1 | inconclusive: 39.8 µM [inhibitor, single point]
33 | Cc1cccc(N(C(=O)Cn2nnc3ccccc32)C(C(=O)NC(C)(C)C)c2ccsc2)c1 (configuration not stated) | inactive
34 | N#Cc1cnc(SCCc2ccccc2)nc1N | inconclusive: 39.8 µM [inhibitor, single point]
35 | CC(C)c1nnc(N2C(=O)c3oc4ccccc4c(=O)c3C2c2ccco2)s1 (configuration not stated) | inconclusive: 3.16 µM [inhibitor, full curve]
36 | COCCCNCCCCOc1ccc(C)cc1[N+](=O)[O-] | inconclusive: 25.1 µM [inhibitor, single point]
37 | Cc1ccccc1OCc1nc(-c2ccc(NC(=O)c3ccc4c(c3)OCO4)cc2)no1 | inconclusive: 39.8 µM [inhibitor, single point]
38 | CCc1cc2c3c(c1)C1(C(=O)N3C(C)(C)C=C2C)C(C#N)=C(N)Oc2[nH]c(=O)[nH]c(=O)c21 (configuration not stated) | inconclusive: 0.1 µM [inhibitor, full curve]
39 | CCc1nnc(NC(=O)CSc2nc(-c3ccccc3)c(-c3ccccc3)o2)s1 | inconclusive: 35.5 µM [inhibitor, single point]
40 | COc1cc(/C=C/C(=O)O)cc(S(=O)(=O)N(CC(C)C)CC(C)C)c1OC | inactive
41 | Cc1noc(C)c1COc1ccc(C(=O)OCC(=O)N2CC3(C)CC2CC(C)(C)C3)cc1 (configuration not stated) | inconclusive: 39.8 µM [inhibitor, single point]
42 | O=S(=O)(Cc1ccccc1)c1ccccc1-c1nnc(-c2ccccc2)o1 | inconclusive: 25.1 µM [inhibitor, partial curve]
43 | COc1ccc(Cl)cc1NC(=O)c1cnc2sccn2c1=O | inconclusive: 39.8 µM [inhibitor, single point]
44 | CC(C)(C)OC(=O)N1CCC(C(=O)N2CCCCCC2)CC1 | inactive
45 | CCOC(=O)c1cc2c(C(F)(F)F)cc(-c3ccccc3)nc2o1 | inconclusive: 10 µM [inhibitor, partial curve]
46 | CC(C)NC[C@@H](O)COc1ccc(CCOCC2CC2)cc1 | inactive
47 | O=C(Nc1ccccc1F)c1ccc(-n2cncn2)nc1 | inactive
48 | CC(C)Cc1nc(N2CCCCC2)c(C#N)c2c1CCC2 | inconclusive: 22.4 µM [inhibitor, partial curve]

Row | SMILES | Potency
49 | N#Cc1nc(-c2cccs2)oc1NCc1ccccc1 | inconclusive: 31.6 µM [inhibitor, partial curve]
50 | CCN(CC)S(=O)(=O)c1cc(NC(=O)COC(=O)c2ccc(NC(=O)CC#N)cc2)ccc1C | inactive
51 | CCCC1C2C(=O)N(c3ccccc3OC)C(=O)C2ON1c1ccccc1 (configuration not stated) | inactive
52 | O=C(c1ccc(Cl)cc1)C1C2C(=O)N(c3ccccc3)C(=O)C2C2CCCN21 (configuration not stated) | inconclusive: 35.5 µM [inhibitor, single point]
53 | CS(=O)(=O)N1Cc2ccccc2CC1C(=O)OCC(=O)Nc1ccc2ccccc2c1 (configuration not stated) | inactive
54 | CN(Cc1ccccc1)C(=O)C1CCN(S(C)(=O)=O)CC1 | inactive
55 | Cn1c(SCC(N)=O)nnc1C1CCN(S(=O)(=O)c2ccccc2C(F)(F)F)CC1 | inconclusive: 31.6 µM [inhibitor, single point]
56 | Cc1cc(-c2ccc(N3CCOCC3)cc2)nc2ccccc12 | inconclusive: 35.5 µM [inhibitor, single point]
57 | COc1ccc(-c2noc(CCC(=O)Nc3cc(OC)ccc3OC)n2)cc1 | active: 7.08 µM
58 | CC1=C(CC(=O)c2ccccc2)C(=O)c2ccccc2C1=O | inconclusive: 22.4 µM [inhibitor, partial curve]
59 | Cn1cnnc1SC1c2cccc3cccc(c23)C1NS(=O)(=O)c1ccc(Cl)cc1 (configuration not stated) | inconclusive: 28.2 µM [inhibitor, single point]
60 | CCOC(=O)C1(CCCc2ccccc2)CCN(C(=O)CCn2cncn2)CC1 | inconclusive: 31.6 µM [inhibitor, single point]
61 | CCOC(=O)c1ccc(NC(=O)CN2CCc3ccccc3C2)cc1 | active: 14.1 µM
62 | Cc1ccc(C(=S)N2CCN(Cc3ccccc3)CC2)cc1 | inconclusive: 35.5 µM [inhibitor, single point]
63 | Cn1ccc2c([N+](=O)[O-])cccc2c1=O | inactive
64 | CN1/C(=C\C(=O)c2cccnc2Cl)C(C)(C)c2ccccc21 | inactive
65 | Cc1ccn2cc(C(=O)Nc3ccccc3N3CCOCC3)nc2c1 | inconclusive: 14.1 µM [inhibitor, partial curve]
66 | CC(O)CNc1cnccn1 (configuration not stated) | inconclusive: 25.1 µM [inhibitor, partial curve]
67 | Nc1cc2c(cc1C(=O)c1cccc(Br)c1)OCCO2 | inactive
68 | Cc1ccc(C(=O)NC(=S)Nc2cccc(NC(=O)c3ccccc3Cl)c2)cc1[N+](=O)[O-] | active: 12.6 µM
69 | CC1=CC(=NOC(=O)c2cccc([N+](=O)[O-])c2)C=C(C)C1=O | inconclusive: 39.8 µM [inhibitor, single point]
70 | Cc1ccc2c(c1)-c1cc(C)nn1C(c1ccc3c(c1)OCO3)N2 (configuration not stated) | inconclusive: 35.5 µM [inhibitor, single point]
71 | COc1ccccc1NC(=O)CN1CCN(CC(=O)Nc2ccc3c(c2)OCO3)CC1 | active: 11.2 µM
72 | COc1c2ccoc2nc2c(OC)c(OCC(O)C(C)(C)O)ccc12 (configuration not stated) | inconclusive: 22.4 µM [inhibitor, partial curve] and inconclusive: 25.1 µM [inhibitor, partial curve] and inconclusive: 31.6 µM [inhibitor, partial curve]
